Source: ChEMBL document CHEMBL4888484, “Replenishing the malaria drug discovery pipeline: Screening and hit evaluation of the MMV Hit Generation Library 1 (HGL1) against asexual blood stage Plasmodium falciparum ,using a nano luciferase reporter read-out” (2022)
Screen size: about 150,000 compounds; about 540 (0.36%) showed an effect of 50% or more. This is one part of the list.

System: Plasmodium falciparum
Assay: Primary screen in NF54 nanoGlo assay, in single point, at 2uM, 72h; a lower Z score goes with more inhibition
Type: functional, Erythrocyte
Conditions: timepoint 72 hour

SMILES	% Inhibition	Z score
CN1CCC2C(CCCN2C(=O)CCCc2ccccn2)C1 (configuration not stated)	-8%	0.94
O=C(COc1ccccc1)N1CCN2CCS(=O)(=O)N(C3CC3)C(=O)[C@@H]2C1	10%	-1.94
Cc1ccc(Cl)c(NC(=O)N2CCC[C@H](c3n[nH]c(=O)o3)C2)c1	41%	-5.9
CCCCOC(=O)N1C[C@@H]2CC[C@H]1CN(Cc1ccncc1)C2	-14%	1.72
CN1C(=O)C(C2c3ccccc3Oc3ccccc32)C(=O)N(C)C1=O	13%	-2.4
Cc1cc(=O)c(C(=O)NCCN2CCOCC2)c(CCc2ccccc2)n1Cc1ccncc1	-6%	1.21
OC1CCC(NC2CCCCCCC2)CC1 (configuration not stated)	-10%	1.91
Cc1cnn(C[C@H](C)NCc2ccco2)c1	-6%	0.89
COc1ccc(CCN[C@@H](C)c2nccs2)cc1OC	5%	-0.66
CCn1nccc1C(=O)N1CC[C@@H]2CN(Cc3ccncc3)[C@@H]2C1	-15%	2.08
CS(=O)(=O)N1C[C@@H]2C[C@H](C1)c1ccc(-c3cccc(C(F)(F)F)c3)c(=O)n1C2	32%	-3.6
CC(C)(C)c1ncc2c(n1)CC1CCC2N1 (configuration not stated)	-9%	1.28
CCCn1c(=O)oc2cc(NS(=O)(=O)c3ccc(Cl)cc3)ccc21	-14%	1.36
Cc1ccc(S(=O)(=O)CCc2noc(C(=O)N3CCC4(CC3)OCCO4)n2)cc1	-7%	1.02
COc1cc2ccccc2cc1C(=O)Nc1ccc(Cl)cc1C(=O)c1ccccc1	-6%	0.84
OC1CC2CCCC(C1)N2Cc1ccccc1 (configuration not stated)	-7%	0.98
CC1(C)CCCCC1NC1CC2CCC1O2 (configuration not stated)	-10%	1.63
OCC(CO)N1C[C@H](c2cccc(F)c2F)[C@@H]2[C@H]1C1CCN2CC1	-8%	0.85
c1cc(N2CCN3CCC[C@H]3C2)ncc1-c1nc(C2CC2)no1	-11%	1.4
Cc1ccc(CN2C[C@H]3CCC[C@@H](C2)N(C)C3)nc1	-15%	1.43
Cc1cc(O)nc(CN2C[C@H](C)OC3(CCC3)C2)n1	-6%	0.8
O=C(Cc1cccc(F)c1)N1CC(N(Cc2ccncc2)CC2CC2)C1	-7%	1.25

SMILES	% Inhibition	Z score
Nc1ccnc(N2C[C@H](c3cccc(F)c3F)[C@@H]3[C@H]2C2CCN3CC2)n1	9%	-1.07
O[C@](C#CCN1CCOCC1)(c1ccccc1)C1CCCC1	-4%	0.55
Cc1noc(C)c1CN[C@@H](C)Cn1cncn1	-4%	0.78
CCC1CC(c2nc(-c3ccc4oc(=O)[nH]c4c3)no2)CCO1 (configuration not stated)	3%	-0.4
Cc1cc(C)cc(OCC(=O)N2CCN([C@@H](C)c3nnc(C)s3)CC2)c1	-4%	0.78
CCCC(=O)N1C[C@@H](c2cccc(F)c2F)[C@@H]2[C@H]1C1CCN2CC1	-3%	0.63
CNC(=NCCc1cn(C)c2cc(C)ccc12)NC	-5%	0.52
CC(C)c1cccc(OCC#CCN2CCOCC2)c1	-8%	0.83
O=C(c1cc(C2CC2)nc2ccccc12)N1CCC2(CC1)OCCO2	3%	-0.45
COc1ccc(Cl)cc1C(=O)[C@H]1CCCN(Cc2ccon2)C1	-9%	1.19
COc1ccc(NCCS(=O)(=O)F)cc1	0%	0.03
COCCN1CC[C@H](N2CCCN(C(=O)Cc3c[nH]c4ccccc34)CC2)C1=O	-13%	1.74
COc1ccc2c(c1)OC[C@@]1(C(=O)O)CN(CCC(F)(F)C(F)F)C[C@@H]21	-20%	1.95
CNc1nc(N2CCN(CCc3ccccc3)CC2)nc2c1CCC2	-9%	1.39
Cc1c(C(=O)NC(C)(C)c2cccc(Cl)c2)nnn1C1CCNCC1	-5%	0.76
O=C(NCC#CCN1CCCCC1)c1cccc(Br)c1	-9%	1.71
Cc1ccc([C@H](C)Nc2ncncc2C(=O)O)cn1	-10%	1.35
COC(c1ccccc1)C(C)NCC(O)(C1CC1)C1CC1 (configuration not stated)	-3%	0.45
OC[C@]12COCCN1CCN(c1ncnc3[nH]ncc13)C2	-7%	1.22
CC(C)(C)c1csc([C@@H]2CNCCO2)n1	1%	-0.12
COc1cc(C)nc(CN2CCc3nccc(N)c3C2)c1	-1%	0.13
CN(C)S(=O)(=O)N1C[C@H]2CC[C@@H](C1)N(Cc1c(Cl)cncc1Cl)C2	-11%	1.15

SMILES	% Inhibition	Z score
O=C(c1ncncc1Cl)N1C[C@@H]2CCCN2Cc2ccccc21	-15%	2.29
CC(=O)NCCNC(=O)N[C@@H](C)Cc1c(Cl)cccc1Cl	4%	-0.55
O[C@]1(c2ccc(Cl)cc2)C[N+]2=C(CCCCC2)N1c1ccccc1	12%	-2.3
NCCc1ccc(C[C@@H]2COc3ccccc3C2)cc1	1%	-0.06
O[C@@H]1COCCN(CCn2ccc3cc(Cl)ccc32)C1	-1%	0.12
COCC(C)NC(C)Cc1ccccc1F (configuration not stated)	-7%	1.28
COC(=O)N1C[C@@H](c2cc(F)cc(F)c2)[C@@H]2[C@H]1C1CCN2CC1	-3%	0.57
CC(Cn1cncn1)NC(C)c1ccc(Br)cc1F (configuration not stated)	-6%	0.61
CN1C(=O)[C@@H]2CC[C@H]1CN(Cc1cc(C3CCCCC3)no1)C2	-8%	1.3
CCn1c(=O)oc2cc(-c3noc(-c4cccc(F)c4)n3)ccc21	-20%	1.92
CNS(=O)(=O)CCCN1CCOC2CCCC21 (configuration not stated)	-13%	1.87
O=C(c1ccc2c3c(cccc13)CC2)[C@H]1CCCN(C2CCOCC2)C1	-8%	1.2
CCOc1cccc2c1cc(C(=O)NC1CCCCC1)n2Cc1ccccc1Cl	-5%	0.48
COc1cccc([C@@H]2CN(C(=O)c3cnc(C)nc3)[C@@H]3C4CCN(CC4)[C@@H]32)c1	-9%	1.09
COc1ccc(-c2cccc(C(=O)N[C@H]3CN4CCC3CC4)c2)c(OC)c1	15%	-1.88
COCC(=O)N1CCC2(CC1)c1nccn1-c1ccccc1CN2CC(C)C	-13%	1.67
Cc1noc(C)c1C(C)NC(=O)NC(C)Cc1c(F)cccc1F (configuration not stated)	-13%	1.19
CCCc1nn(CC(=O)Nc2ccccc2CC)c(=O)o1	-3%	0.42
CCn1nc(C)c(CN2C[C@@H](c3cccc(O)c3)[C@@H]3[C@H]2C2CCN3CC2)c1C	-8%	1.07
c1ccc(COc2ccc3c(c2)CNCC3)cc1	-10%	1.27
Cc1ccc([C@H]2CN(C(=O)c3sc(C)nc3C)[C@@H]3C4CCN(CC4)[C@H]23)cc1	-9%	1.19
CN(C)C(=O)CN1C[C@H]2CC[C@@H](C1)N(C(=O)Cc1ccccc1Cl)C2	5%	-1

SMILES	% Inhibition	Z score
CCO[C@H]1CN(C(=O)c2cn(C)c3ccccc23)C[C@@H]1O	-10%	0.92
CO[C@H]1C[C@H]2CC[C@@H](C1)N2Cc1ccc2cc(Cl)ccc2n1	3%	-0.51
Cc1ccc(C[C@H](C)N(C)CCS(C)(=O)=O)cc1	-19%	1.79
C(#CCN1CCOCC1)COCC#Cc1ccccc1	1%	-0.16
C1=CC[C@H]2CN(Cc3cnc(NCc4ccccc4)nc3)C[C@H]2C1	-6%	0.81
c1ccc2c(c1)CC(N1C[C@@H](c3ccc4c(c3)OCO4)[C@@H]3[C@H]1C1CCN3CC1)C2	-6%	0.66
O=C(Oc1c(Br)cc(Br)c2ccccc12)N1CCCCC1	-6%	0.77
COc1nccnc1N1[C@@H]2CC[C@H]1CN(C)CC2	7%	-1.2
O=C(CN(CCN1CCOCC1)C(=O)Cc1ccccc1)Nc1nc(-c2ccccc2)cn1-c1ccc(F)cc1	-18%	1.7
O=C1NC(=O)C2(Cc3cccc(F)c3N3CCC(c4ccccc4)CC32)C(=O)N1c1ccccc1 (configuration not stated)	38%	-4.32
O=C(NCc1nccs1)C1CCCC2CCCN21 (configuration not stated)	-11%	1.55
CCOC(CN1CCC2OCCCC2C1)OCC (configuration not stated)	-9%	1.03
FC(F)(F)c1ccc2c(N3C[C@@H]4C[C@H]3CN4)nccc2c1	-15%	1.51
NC(=O)COc1ccc(-c2cccc3c2CCNC3)cc1	-4%	0.54
COC(=O)[C@H](Cc1ccccc1)NC(=O)c1cnn(Cc2ccccc2)c1	-14%	1.56
C[C@@H](Cc1cccc(Cl)c1)NC(=O)CCN1C(=O)CCC1=O	4%	-0.57
COCc1nn(CCc2cc(Cl)cc(Cl)c2)c(=O)o1	-10%	1.23
CCc1nn(Cc2ccccc2)c(CC)c1C(=O)NC1CC1	-6%	0.53
CC1C2CCCN2CCN1Cc1cccc(O)c1 (configuration not stated)	0%	0.04
O=C(c1ccc2c(c1)OCO2)N1CC(C(=O)N2CCC3(CC2)OCCO3)C1	-10%	1.55
